The values that follow come from the RNAGym collection of RNA variant scans (doi:10.1073/pnas.2313332121).

The chains are these.
B1: TPR 5TU (parent)
chain: GGAUCUUCUCGAUCUAACAAAAAAGACAAAUCUGCCACAAAGCUUGAGAGCAUCUUCGGAUGCAGAGGCGGCAGCCUUCGGUGGCGCGAUAGCGCCAACGUUCUCAACUAUGACACGCAAAACGCGUGCUCCGUUGAAUGGAGUUUAUCAUG

This sample is rich in variants without activity. Where only a bound is given, the exact number is not on record here.

This series covers variants of B1. The series is described as follows: polymerase ribozyme fitness, log enrichment relative to wild type (log ratio); higher = more active; in vitro selection for triplet polymerase activity. Summed up:
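The heterodimeric triplet polymerase ribozyme's subunits were each mutagenized into PCR-built libraries and transcribed. Every library was selected once, in triplicate, by annealing with a biotinylated primer, the partner subunit and triplets, incubating frozen at −7 °C, gel-excising extended constructs, capturing on streptavidin beads and running RT-PCR. Input and output libraries were Illumina-sequenced, with genotypes kept only at ≥10 input reads and ≥1 read per output. Fitness, from inverse-variance-weighted replicate averages, is the base-2 logarithm of genotype enrichment over wild-type enrichment.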
Take C18G A24G G50U U55A A106C C125A: the “polymerase ribozyme fitness (log ratio)” value was no more than -4.2.
In the case of A19C A29U C36G A91C U109C A150C it was no more than -4.2.
In the case of C18G A30U G42C A66U C95U U139C G143A it was no more than -4.2; in that of C18U C76A C95U C99A U101G A107U C149G, no more than -4.2; in that of C18G G84C G126U, -2.27.
For the variant C18G A28G A60C C76U C85U A110C G112C A119U A138U U139C, the “polymerase ribozyme fitness (log ratio)” value is no more than -4.2.
Under C18U A21C G42C C93U stands no more than -4.2.
Under C18U C38U U55C A97U A120C stands -1.43; under A19C A22G A24U G88C, no more than -4.2; under C18U A19U A28C U56C C87U, no more than -4.2.
Under A19C A22U A89C C96G A97U C99U U104G A115C stands no more than -4.2.
For the variant A19C A23G G80C C87G G88A G136A, the “polymerase ribozyme fitness (log ratio)” value is no more than -4.2.
In the case of C18U G25U U77G C87G C114U, the “polymerase ribozyme fitness (log ratio)” value is no more than -4.2.
Under C18G A29U C75G U78A C95G C105A C118U A142U stands no more than -4.2; under A19C C43U C51G G71A C87G C105U C108U G141C, no more than -4.2.
With C18G U56G C85U, the “polymerase ribozyme fitness (log ratio)” value is -0.856.
Take C18G C76A C85U G141A: the “polymerase ribozyme fitness (log ratio)” value is no more than -4.2.
Consider A19C C32U C69A U77C C103A G143A U145A, for which the “polymerase ribozyme fitness (log ratio)” value was no more than -4.2.
Under C18G A52G U61A G67U G68A C85A G88U U109G G140C stands no more than -4.2.
In the case of A19C A107G it was -3.75; in that of C18U A64C C75G U82G C95A C96U A107U G140C, no more than -4.2.
In the case of C18U G88C C103A G112C G143C, the “polymerase ribozyme fitness (log ratio)” value was no more than -4.2.
Under C18G G42A U45A G58U A122C A142G stands no more than -4.2; under A19C A20U C85A A91U C96G G124A U144A, no more than -4.2.
In the case of C18U C38A G94C G124U C125U U148A A150C it was no more than -4.2.
In the case of C18U A20C C54U C93U C96G C105U U130A C132G it was no more than -4.2.
As to C18U C51U A89U C96A, the “polymerase ribozyme fitness (log ratio)” value was -2.24.
As to C18G A20G C51A U77A C87G U144A, the “polymerase ribozyme fitness (log ratio)” value was no more than -4.2.
Under A19C A107U U135C stands no more than -4.2.
Consider A19C C72U U77G C93G C96A C118U G140A, for which the “polymerase ribozyme fitness (log ratio)” value is no more than -4.2.
Under A19C A20U A28U A30U A97G A113U A115G stands no more than -4.2; under C18U G81A C87U A97U, -1.14.
Turning to C18U G25U G42C A73U G83U C93U A106G A121C U144A, the “polymerase ribozyme fitness (log ratio)” value is no more than -4.2.
For the variant C18U U78G C87G C99G A106G C118A, the “polymerase ribozyme fitness (log ratio)” value was no more than -4.2.
In the case of A19C C79U A98U it was -1.81.
Under C18U A23U A26U A30U C87U C96G C108U G136A stands no more than -4.2; under A19C A150G, -0.495; under C18G A66C C99G A147U, no more than -4.2.
A19C A39G A47C U127C: the “polymerase ribozyme fitness (log ratio)” value was no more than -4.2.
For the variant A19C A20U U61C C76A U82C A91U U130G U146C, the “polymerase ribozyme fitness (log ratio)” value was no more than -4.2.
Turning to A19C A41G C131A A138U, the “polymerase ribozyme fitness (log ratio)” value was no more than -4.2.
In the case of A19C A22C U55G G92U C149G it was no more than -4.2; in that of C18G G65C A73G C87A G88U A119C C131U, no more than -4.2.
As for C18G A23C G34A A66U G84U U135A, the “polymerase ribozyme fitness (log ratio)” value was no more than -4.2.
In the case of C18G U31C G59C G81A C116G A138G it was -4.15.
Turning to A19C A91U G152C, the “polymerase ribozyme fitness (log ratio)” value was no more than -4.2.
C18A A23G C57G C63G C85G A91U U139C: the “polymerase ribozyme fitness (log ratio)” value was no more than -4.2.
For A19C C93G A107G, the “polymerase ribozyme fitness (log ratio)” value is no more than -4.2.
For the variant C18U A19G G94A, the “polymerase ribozyme fitness (log ratio)” value is -2.01.
For the variant C18G C32U A49C C85A U139A, the “polymerase ribozyme fitness (log ratio)” value was no more than -4.2.
Consider C18U A30C U31G A41C G83C G86U C105U, for which the “polymerase ribozyme fitness (log ratio)” value was no more than -4.2.
Under C18G C35U G83C G128U U151G stands no more than -4.2.
Under A19C A20C A28U C75G C93U stands no more than -4.2.
In the case of C18U A52G A91G C123G it was no more than -4.2; in that of C18U A21C G141A, 0.0565.
In the case of C18U A20G C76A U77A G92U U101A U134G, the “polymerase ribozyme fitness (log ratio)” value is no more than -4.2.
Regarding A19C A20C U148A, the “polymerase ribozyme fitness (log ratio)” value was -3.05.
In the case of A19C A26C C38A C43G G74U G80C A121U U127G G136A A138C it was no more than -4.2; in that of C18G C32G A52C G58C A142C U145C U148G, no more than -4.2; in that of A19C C27A G81C G117C A121G C149G, no more than -4.2.
With C18U C85U C105U, the “polymerase ribozyme fitness (log ratio)” value was found to be 0.286.
As for C18G U31A A107G, the “polymerase ribozyme fitness (log ratio)” value is no more than -4.2.
In the case of A19C A64U C79A C93U C99A it was no more than -4.2; in that of C18U A19C C43U G81A G94U C118U G133U, no more than -4.2; in that of A19C A52U, -1.43.
In the case of C18U A37U G83A C87U U90G A98C C116A G133U A137C it was no more than -4.2.
As for C18U A23U C57A G92C, the “polymerase ribozyme fitness (log ratio)” value was no more than -4.2.
As for C18U A40C A52G G86U U90C U135G, the “polymerase ribozyme fitness (log ratio)” value is no more than -4.2.
Under A19C A30U G50A A73C G80U G86A C118A U145G stands no more than -4.2.
Under C18U U77C G83A C99G A120C stands no more than -4.2.
Under A19C G50C C87A C114U G143A stands no more than -4.2; under C18G A21C A52G G84U G133C U134C, -4.07; under A19C A28U U55G U78C A91U, no more than -4.2.
On to A19C G50U G58U G68U, for which the “polymerase ribozyme fitness (log ratio)” value is no more than -4.2.
As to A19C A60G C96U, the “polymerase ribozyme fitness (log ratio)” value came to 0.412.
Turning to C18G A41U C76G C93A C125G U139C C149G, the “polymerase ribozyme fitness (log ratio)” value was no more than -4.2.
Under C18G U56A A64G C79U G88C A142U stands no more than -4.2; under C18U A23U A28G A73U U78A G92U C95U A107G A122G, no more than -4.2; under C18U A39U G86U U90A, no more than -4.2.
With A19C C54A U78G C96U G141C, the “polymerase ribozyme fitness (log ratio)” value was no more than -4.2.
Under C18U C87A stands no more than -4.2; under A19C C75U C87G C96U G126A, no more than -4.2.
Consider C18G A20C U55G U61G G68C A89G, for which the “polymerase ribozyme fitness (log ratio)” value is no more than -4.2.
As to C18U G133A, the “polymerase ribozyme fitness (log ratio)” value is no more than -4.2.
